Measurements published in the supplement of paper PMC12217912.
Some of the results follow. Sequences were assembled here from the parent chain. Values near 0.05 are background.

B1: TEV protease; numbered along this chain (parent)
chain: MGESLFKGPRDYNPISSSICHLTNESDGHTTSLYGIGFGPFIITNKHLFRRNNGTLVVQSLHGVFKVKDTTTLQQHLVDGRDMIIIRMPKDFPPFPQKLKFREPQREERICLVTTNFQTKSMSSMVSDTSCTFPSGDGIFWKHWIQTKDGQCGSPLVSTRDGFIVGIHSASNFTNTNNYFTSVPKNFMELLTNQEAQQWVSGWRLNADSVLWGGHKVFMVKPEEPFQPVKEATQL

Variants of: B1
Test: raw area under fraction-flipped curve 0-4 h after induction (AUC4h, not background-subtracted), DNA-recorder readout of cleavage of the substrate (dimensionless); higher = more cleavage of the substrate by the protease variant
Settings: temperature: 34 °C; time window: 0-4 h after rhamnose induction
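Note: Bxb1 expression induced with 0.2% (w/v) L-rhamnose at OD600 near 0.5, cultures sampled hourly, flipped fraction per protease–substrate barcode pair counted by paired-end Illumina sequencing.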

Which results are given for MGESLFKGPRDYNPISSSICHLTNESDGHTTSLYGIGFGPFIITNKHLFRRNNGPLVVQSLHGVFKVKDTTTLQQHLVDGRDMIIIRMPKDFPPFPQKLKFREPQREERICLVTTNFQTKSMSSMVSDTSCTFPSGDGIFWKHWIQTKDGQCGSPLVSTRDGFIVGIHSASNFTNTNNYFTSVPKNFMELLTNQEAQQWVSGWRLNADSVLWGGHKVFMVKPEEPFQPVKEATQL [T55P]?
area with substrate EELYFQS: 0.101; area with substrate EHLYFQS: 0.0775; area with substrate EILYFQS: 0.0859; area with substrate ELLYFQS: 0.0828; area with substrate EMLYFQS: 0.104; area with substrate EPLYFQS: 0.0873; area with substrate EQLYFQS: 0.0921; area with substrate ERLYFQS: 0.0857; area with substrate ESLYFQS: 0.0814; area with substrate EVLYFQS: 0.0793; area with substrate EWLYFQS: 0.0853

For MGESLFKGPRDYNPISSSICHLTNESDGHTTSLYGIGFGPFIITNKHLFRRNNGTLVVQSLHGVFKVKDTTTLQQHLVDGRDMIIIRMPKDFPPFPQKLKFREPQREERICLVTTNFQTKSMSSMVSDTSCTFPSGDGIFWKHWIQTKDGQCGSPLVSTRDGFIVGIHSASNFTNTNNYFTSVPKNFMELLTNQEAQQWVSGWRPNADSVLWGGHKVFMVKPEEPFQPVKEATQL [L205P], which “area with substrate EDLYFQS” value is on record?
The value was 0.0818.

And the “area with substrate EELYFQS” value?
Its value is 0.0666.

And the “area with substrate EKLYFQS” value?
The value was 0.0541.

What about the “area with substrate ELLYFQS” value of the same variant?
The value was 0.0593.

What about the “area with substrate EMLYFQS” value of the same variant?
The value was 0.0647.

And the “area with substrate EQLYFQS” value?
Its value is 0.0661.

And the “area with substrate ERLYFQS” value?
Its value is 0.0719.

With MGESLFKGPRDYNPISSSICHLTNESDGHTTSLYGIGFGPFIITNKHLFRRNNGTLVVQSLHGVFKVKDTTTLQQHLVDGRDMIIIRMPKDFPPFPQKLKFREPQREERICLVTTNFQTKSMSSMVSDTSCTFPSGDGIFWKHWIQTKDGQCGSPLVSTRDGFIVGIHSASNFTNTNNYFTSVPKNFMELLTNQEAQQWVSGWRLNADSVLWGGHKVFMVKPEEPFQPVKEITQL [A232I] as the variant, how does the “area with substrate EDLYFQS” value read?
The value was 0.116.

What about the “area with substrate EELYFQS” value of the same variant?
Its value is 0.153.

What about the “area with substrate EFLYFQS” value of the same variant?
The value was 0.115.

And the “area with substrate ELLYFQS” value?
The value was 0.0953.

And the “area with substrate EQLYFQS” value?
The value was 0.0982.

What about the “area with substrate ERLYFQS” value of the same variant?
The value was 0.114.

And the “area with substrate ESLYFQS” value?
The value was 0.101.

With MGESLFKGPRDYNPISSSICHLTNESDGHTTSLYGIGFGPFIITNKHLFRRNNGTLVVQSLHGVFKVKDTTTLQQHLVDGRDMIIIRMPKDFPPFPQKLKFREPQCEERICLVTTNFQTKSMSSMVSDTSCTFPSGDGIFWKHWIQTKDGQCGSPLVSTRDGFIVGIHSASNFTNTNNYFTSVPKNFMELLTNQEAQQWVSGWRLNADSVLWGGHKVFMVKPEEPFQPVKEATQL [R106C] as the variant, how does the “area with substrate EDLYFQS” value read?
The value was 0.102.

And the “area with substrate EELYFQS” value?
The value was 0.0849.

What about the “area with substrate EFLYFQS” value of the same variant?
The value was 0.106.

And the “area with substrate EGLYFQS” value?
The value was 0.0737.

And the “area with substrate EHLYFQS” value?
The value was 0.108.

What about the “area with substrate EILYFQS” value of the same variant?
Its value is 0.0983.

And the “area with substrate EMLYFQS” value?
Its value is 0.119.

And the “area with substrate EQLYFQS” value?
The value was 0.118.

What about the “area with substrate ESLYFQS” value of the same variant?
Its value is 0.0871.

What about the “area with substrate EVLYFQS” value of the same variant?
The value was 0.107.

And the “area with substrate EYLYFQS” value?
The value was 0.119.

What does the source list for MGESLFKGPRDYNPISSSICHLTNESDGHTTSLYGIGFGPFIITNKHLFRRNNGTLVVQSLHGVFKVKDTTTLQQHLVDGRDMIIIRMPKDFPPFPQKLKFREPQREERICLVTTNFQTKSMSSMVSDTSCTFPSGDGIFWKHWIQTKDGQCGSPLVSTRDGFIVGIHSASNFTNTNNYFTSVPKNFMELLTNQEAQQWVMGWRLNADSVLWGGHKVFMVKPEEPFQPVKEATQL [S201M]?
area with substrate EDLYFQS: 0.114; area with substrate EGLYFQS: 0.0704; area with substrate EILYFQS: 0.09; area with substrate ELLYFQS: 0.113; area with substrate EMLYFQS: 0.123; area with substrate EPLYFQS: 0.13; area with substrate EQLYFQS: 0.106; area with substrate ERLYFQS: 0.0938; area with substrate ESLYFQS: 0.0918; area with substrate EVLYFQS: 0.0895; area with substrate EWLYFQS: 0.0796

With MGESLFKGPRDYNPISSSICHLTNESDGHTTSLYGIGFGPFIITNKHLFRDNNGTLVVQSLHGVFKVKDTTTLQQHLVDGRDMIIIRMPKDFPPFPQKLKFREPQREERICLVTTNFQTKSMSSMVSDTSCTFPSGDGIFWKHWIQTKDGQCGSPLVSTRDGFIVGIHSASNFTNTNNYFTSVPKNFMELLTNQEAQQWVSGWRLNADSVLWGGHKVFMVKPEEPFQPVKEATQL [R51D] as the variant, how does the “area with substrate EELYFQS” value read?
The value was 0.0965.

What about the “area with substrate EGLYFQS” value of the same variant?
Its value is 0.111.

What about the “area with substrate EHLYFQS” value of the same variant?
The value was 0.104.

What about the “area with substrate EILYFQS” value of the same variant?
Its value is 0.0903.

What about the “area with substrate EPLYFQS” value of the same variant?
Its value is 0.128.

And the “area with substrate ERLYFQS” value?
Its value is 0.125.

And the “area with substrate ESLYFQS” value?
The value was 0.127.

And the “area with substrate EWLYFQS” value?
Its value is 0.0976.

And the “area with substrate EYLYFQS” value?
Its value is 0.0808.

With MGESLFKGPRDYNPISSSICHLTNESDGHTTSLYHIGFGPFIITNKHLFRRNNGTLVVQSLHGVFKVKDTTTLQQHLVDGRDMIIIRMPKDFPPFPQKLKFREPQREERICLVTTNFQTKSMSSMVSDTSCTFPSGDGIFWKHWIQTKDGQCGSPLVSTRDGFIVGIHSASNFTNTNNYFTSVPKNFMELLTNQEAQQWVSGWRLNADSVLWGGHKVFMVKPEEPFQPVKEATQL [G35H] as the variant, how does the “area with substrate EELYFQS” value read?
The value was 0.0566.

What about the “area with substrate EGLYFQS” value of the same variant?
The value was 0.0579.

And the “area with substrate EMLYFQS” value?
Its value is 0.0507.

What about the “area with substrate EQLYFQS” value of the same variant?
The value was 0.0423.

And the “area with substrate ESLYFQS” value?
The value was 0.0544.

What about the “area with substrate ETLYFQS” value of the same variant?
Its value is 0.0474.

What about the “area with substrate EWLYFQS” value of the same variant?
Its value is 0.0446.

Which “area with substrate EELYFQS” value does the source give for MGESLFKGPRDYNPISSSICHLTNEIDGHTTSLYGIGFGPFIITNKHLFRRNNGTLVVQSLHGVFKVKDTTTLQQHLVDGRDMIIIRMPKDFPPFPQKLKFREPQREERICLVTTNFQTKSMSSMVSDTSCTFPSGDGIFWKHWIQTKDGQCGSPLVSTRDGFIVGIHSASNFTNTNNYFTSVPKNFMELLTNQEAQQWVSGWRLNADSVLWGGHKVFMVKPEEPFQPVKEATQL [S26I] here?
Its value is 0.082.

And the “area with substrate EGLYFQS” value?
Its value is 0.0903.

What about the “area with substrate EHLYFQS” value of the same variant?
Its value is 0.0582.

And the “area with substrate EILYFQS” value?
The value was 0.04.

And the “area with substrate EKLYFQS” value?
Its value is 0.0913.

What about the “area with substrate EMLYFQS” value of the same variant?
The value was 0.0825.

And the “area with substrate EQLYFQS” value?
The value was 0.0618.

What about the “area with substrate ERLYFQS” value of the same variant?
Its value is 0.0758.

What about the “area with substrate ETLYFQS” value of the same variant?
Its value is 0.0658.

And the “area with substrate EVLYFQS” value?
The value was 0.0653.

What about the “area with substrate EWLYFQS” value of the same variant?
Its value is 0.0737.

And the “area with substrate EYLYFQS” value?
The value was 0.0446.

For MGESLFKGPRDYNPISSSICHLTNESDGHTTSLPGIGFGPFIITNKHLFRRNNGTLVVQSLHGVFKVKDTTTLQQHLVDGRDMIIIRMPKDFPPFPQKLKFREPQREERICLVTTNFQTKSMSSMVSDTSCTFPSGDGIFWKHWIQTKDGQCGSPLVSTRDGFIVGIHSASNFTNTNNYFTSVPKNFMELLTNQEAQQWVSGWRLNADSVLWGGHKVFMVKPEEPFQPVKEATQL [Y34P], which “area with substrate EELYFQS” value is on record?
The value was 0.0536.

What about the “area with substrate EFLYFQS” value of the same variant?
The value was 0.0487.

What about the “area with substrate EGLYFQS” value of the same variant?
Its value is 0.0393.

And the “area with substrate EKLYFQS” value?
The value was 0.0501.

And the “area with substrate ELLYFQS” value?
Its value is 0.0737.

What about the “area with substrate EQLYFQS” value of the same variant?
The value was 0.0485.

What about the “area with substrate ESLYFQS” value of the same variant?
Its value is 0.049.

And the “area with substrate ETLYFQS” value?
Its value is 0.0666.

And the “area with substrate EVLYFQS” value?
The value was 0.0505.
